Results reported in PubChem BioAssay AID588342 (National Center for Advancing Translational Sciences (NCATS), 2011).
Hit rate of the full screen: of about 360,000 compounds, about 25,000 (6.9%) were called active. The shares of active, inactive and inconclusive entries below differ from those in the screen. The call rests on the fitted dose curve; in most records, active means well fitted inhibition curve with a large enough effect; inconclusive means small, poorly fitted or top-dose-only effect; inactive means flat fitted curve, though single readings scatter. Where the call is inconclusive, the potency comes from a doubtful curve fit.

What follows are compounds tested against Luciferin 4-monooxygenase (Photinus pyralis) (UniProt P08659) (assay: qHTS profiling assay for firefly luciferase inhibitor/activator using purifed enzyme and Km concentrations of substrates (counterscreen for miR-21 project)). Details: purified FLuc, luminescence inhibition; series mostly up to 57.5 µM; activity change, negative = inhibition: at the top concentration.
Summary of the method: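 Purified P. pyralis luciferase (10nM final) with 10uM D-luciferin and 10uM ATP (Km levels) in 50mM Tris acetate pH 7.5, 10mM Mg acetate, 0.01% Tween-20, 0.05% BSA; qHTS 6-point titration, ~60 µM downward; luminescence read.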
Further: nearly all actives have a fitted effect of over 55% in size.
Potency means the concentration at half of the fitted maximal effect; tags describe the fitted curve by direction and shape.
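Wherever activity change, negative = inhibition is given: plate controls were vehicle for no effect and reference inhibitor for full effect.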

Chain of UniProt P08659 (P08659 whole entry, looked up): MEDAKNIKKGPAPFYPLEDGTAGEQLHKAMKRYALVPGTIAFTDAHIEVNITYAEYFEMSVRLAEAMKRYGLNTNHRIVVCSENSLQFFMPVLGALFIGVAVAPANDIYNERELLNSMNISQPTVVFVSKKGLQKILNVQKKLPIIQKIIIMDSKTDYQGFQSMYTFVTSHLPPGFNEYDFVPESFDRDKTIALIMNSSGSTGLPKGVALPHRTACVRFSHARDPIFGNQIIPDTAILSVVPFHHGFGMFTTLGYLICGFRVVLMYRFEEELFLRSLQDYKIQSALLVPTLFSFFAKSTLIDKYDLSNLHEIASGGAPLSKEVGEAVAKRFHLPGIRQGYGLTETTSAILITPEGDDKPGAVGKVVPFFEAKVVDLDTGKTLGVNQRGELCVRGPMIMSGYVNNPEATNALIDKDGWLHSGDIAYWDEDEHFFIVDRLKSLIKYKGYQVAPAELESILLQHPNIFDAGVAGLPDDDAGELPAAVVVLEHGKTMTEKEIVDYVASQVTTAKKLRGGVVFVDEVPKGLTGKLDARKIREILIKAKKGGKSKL

For COc1ccc(NC(=O)Cn2c(=O)n(-c3ccc(CC(=O)NCC4CCCO4)cc3)c(=O)c3ccccc32)c(OC)c1 (configuration not stated), which “activity change, negative = inhibition” value is on record?
The value was inactive: 2.07%.

Which Potency does the source give for Cc1ccc(OCCCn2ccnc2)c(Br)c1 here?
The Potency was inconclusive: 26.9 µM [inhibitor, partial curve].

Which “activity change, negative = inhibition” value does the source give for O=C(O)c1ccc(Cl)cc1NC(=O)C1CCCO1 (configuration not stated) here?
The value was inactive: 2.24%.

CC1S/C(=N/N=C2CCC(C(C)(C)C)CC2)NC1=O (configuration not stated) was tested. Which Potency did it give?
Its Potency is inconclusive: 37.9 µM [inhibitor, single point].

COc1ccc(NC(=S)N2CCCCCC2)cc1OC was tested. Which “activity change, negative = inhibition” value did it give?
Its value is inactive: 3.29%.

For Cc1ccc(S(=O)(=O)/C(C#N)=C/c2c(N3CCOCC3)nc3c(C)cccn3c2=O)cc1, which “activity change, negative = inhibition” value is on record?
The value was inactive: 2.05%.

Which Potency does the source give for NC(=O)c1ccccc1NC(=O)NC1CCCCC1 here?
Its Potency is inconclusive: 33.8 µM [inhibitor, single point].

With O=C(Cn1nnc(-c2ccccc2F)n1)N1CCCCC1 as the compound, how does the Potency read?
Its Potency is inconclusive: 16.9 µM [inhibitor, partial curve].

Which Potency does the source give for CC1CCN(c2nc(/C=C/c3ccccc3)nc3ccccc23)CC1 here?
Its Potency is inconclusive: 37.9 µM [inhibitor, partial curve, poor fit].

For N#Cc1c(NCCCO)nc(NCc2ccccc2)c2c1CCN(Cc1ccccc1)C2, which Potency is on record?
The Potency was inconclusive: 33.8 µM [inhibitor, partial curve, poor fit].

For COCc1nnc(NC(=O)c2cccs2)s1, which “activity change, negative = inhibition” value is on record?
Its value is inactive: -1.04%.

For COc1cc(-c2nnc(SCC(=O)NC3CCS(=O)(=O)C3)o2)cc(OC)c1OC (configuration not stated), which “activity change, negative = inhibition” value is on record?
Its value is inactive: 0.218%.

For COc1ccc(NC(=O)C2(c3cccs3)CCOCC2)cc1Cl, which “activity change, negative = inhibition” value is on record?
Its value is inactive: 0.68%.

CCOC(=O)C1CCN(C(=O)c2cc3cc4cc(OC)ccc4nc3o2)CC1 was tested. Which Potency did it give?
The Potency was inconclusive: 37.9 µM [inhibitor, single point].

Which “activity change, negative = inhibition” value does the source give for CNc1ccc(/C=C(\CCC(=O)O)c2nc3ccccc3s2)cc1[N+](=O)[O-] here?
The value was inactive: -16.1%.

N#CC(c1ccccc1)c1cnccn1 (configuration not stated) was tested. Which “activity change, negative = inhibition” value did it give?
The value was inactive: 0.326%.

CC(C)C(=O)Nc1ccc(NC(=O)c2cc3ccccc3o2)cc1 was tested. Which Potency did it give?
The Potency was inconclusive: 12 µM [inhibitor, partial curve].

S=C(Nc1ccc(N2CCOCC2)cc1)Nc1ccc2nc(-c3ccco3)c(-c3ccco3)nc2c1 was tested. Which Potency did it give?
The Potency was active: 15.1 µM.

N/C(=N\OC(=O)c1cccc2ccccc12)c1ccccn1 was tested. Which Potency did it give?
The Potency was active: 1.2 µM.

With CCOc1ccc(Br)cc1S(=O)(=O)Nc1ccc(Cl)c(S(=O)(=O)N(C)C)c1 as the compound, how does the Potency read?
The Potency was inconclusive: 6.75 µM [inhibitor, partial curve, poor fit].

For C=CCNC(=S)N/N=C/c1ccc(C(C)(C)C)cc1, which Potency is on record?
The Potency was inconclusive: 21.3 µM [inhibitor, partial curve, poor fit].

With COC(=O)CC1=NN(c2nc3ccccc3s2)C(=O)/C1=C/N(C)C as the compound, how does the Potency read?
Its Potency is inconclusive: 2.39 µM [inhibitor, partial curve].

CCc1nnc(NC(=O)CSc2nc3[nH]ncc3c(=O)[nH]2)s1 was tested. Which Potency did it give?
Its Potency is inconclusive: 30.1 µM [inhibitor, partial curve, poor fit].

For CCNC(=S)Nc1cccc(NC(=O)c2ccccc2O)c1, which Potency is on record?
The Potency was inconclusive: 21.3 µM [inhibitor, single point].

Which Potency does the source give for Cc1cccc(OCc2nc3ccccc3n2C)c1 here?
The Potency was active: 23.9 µM.

N#C/C(=C\c1ccc(N2CCOCC2)o1)C(=O)Nc1ccc(O)cc1 was tested. Which Potency did it give?
The Potency was active: 5.36 µM.

How did the Potency turn out when COC(=O)c1ccc2c(=O)[nH]c(CSc3nc(C)cs3)nc2c1 was run?
Its Potency is inconclusive: 37.9 µM [inhibitor, partial curve, poor fit].

With Cc1ccc(N=Nc2c(N)nn3c(C)cc(C)nc23)cc1 as the compound, how does the Potency read?
The Potency was inconclusive: 30.1 µM [inhibitor, partial curve, poor fit].

How did the Potency turn out when CCCCn1nc(C(=O)Nc2ccc3c(c2)OCCO3)c2ccccc2c1=O was run?
The Potency was inconclusive: 23.9 µM [inhibitor, single point].

With NCCNC(=O)c1c(NC(=O)c2ccccc2)sc2c1CCCC2 as the compound, how does the Potency read?
The Potency was inconclusive: 23.9 µM [inhibitor, partial curve, poor fit].

Which Potency does the source give for O=C(N/N=C/c1cccc(F)c1)c1ccc(Cl)cc1 here?
The Potency was active: 2.39 µM.

For Cc1cccc(-c2nc3c4ccccc4nc(NCc4ccccc4Cl)n3n2)c1, which Potency is on record?
The Potency was inconclusive: 16.9 µM [inhibitor, partial curve].

For Cc1ccc(C(NC(=O)Cc2cccs2)C(=O)Nc2ccc(C(C)C)cc2)cc1 (configuration not stated), which “activity change, negative = inhibition” value is on record?
Its value is inactive: 9.44%.

For COc1ccccc1NC(=O)COc1ccc(Br)cc1CO, which “activity change, negative = inhibition” value is on record?
Its value is inactive: -10.2%.

With COc1ccccc1C(=O)Nc1ccc(OCC(=O)N2CC(C)OC(C)C2)cc1 (configuration not stated) as the compound, how does the Potency read?
Its Potency is active: 5.36 µM.

For COc1ccc2c(c1)c1c(c(=O)n(-c3cccc(C)c3)c(=O)n1CC(=O)Nc1c(C)cc(C)cc1C)n2C, which “activity change, negative = inhibition” value is on record?
Its value is inactive: 2.49%.

For COC(=O)c1cccc(CSc2nnc(C)s2)c1, which Potency is on record?
The Potency was inconclusive: 13.5 µM [inhibitor, partial curve].

How did the Potency turn out when O=C(CN1CCCCCC1)Nc1ccc(Br)cc1[N+](=O)[O-] was run?
Its Potency is inconclusive: 21.3 µM [inhibitor, partial curve, poor fit].

For Fc1ccccc1OCCCCSc1ncccn1, which Potency is on record?
Its Potency is inconclusive: 21.3 µM [inhibitor, single point].

How did the Potency turn out when Cc1ccc(C(=O)COC(=O)C(C)N2C(=O)C3C4CCC(C4)C3C2=O)cc1 (configuration not stated) was run?
Its Potency is inconclusive: 10.7 µM [inhibitor, partial curve].

Which Potency does the source give for CCOC(=O)c1cnc2ccccc2c1Nc1ccc2c(c1)OCCO2 here?
The Potency was inconclusive: 37.9 µM [inhibitor, single point].

With c1ccc(COc2ccc(CN3CCN(c4ccccn4)CC3)cc2)cc1 as the compound, how does the Potency read?
Its Potency is active: 6.75 µM.

With Cc1ccc(C(=O)COC(=O)CN2C(=O)C3C4C=CC(C4)C3C2=O)cc1C (configuration not stated) as the compound, how does the Potency read?
Its Potency is inconclusive: 23.9 µM [inhibitor, single point].

With COc1ccc(OCc2nnc(SCC(=O)Nc3ccccc3F)o2)cc1 as the compound, how does the “activity change, negative = inhibition” value read?
The value was inactive: -15.1%.

With COc1ccc(NC(=O)CSc2oc(-c3ccc(C)cc3)nc2S(=O)(=O)c2ccc(C)cc2)c(OC)c1 as the compound, how does the “activity change, negative = inhibition” value read?
Its value is inactive: -4.03%.

Which “activity change, negative = inhibition” value does the source give for CCc1ccc(NC(=S)Nc2cc(OC)c(NC(=O)C(C)C)cc2OC)cc1 here?
Its value is inactive: -18.7%.

Cc1cc([N+](=O)[O-])nn1Cc1ccc(C(=O)N/N=C/c2ccc(F)cc2)cc1 was tested. Which Potency did it give?
Its Potency is inconclusive: 19 µM [inhibitor, partial curve, poor fit].
